Data published in the supplement of paper PMC12217912.
The list shows a part of the results. Sequences were assembled here from the parent chain. Values near 0.05 are background.

B1: TEV protease; numbered along this chain (parent)
chain: MGESLFKGPRDYNPISSSICHLTNESDGHTTSLYGIGFGPFIITNKHLFRRNNGTLVVQSLHGVFKVKDTTTLQQHLVDGRDMIIIRMPKDFPPFPQKLKFREPQREERICLVTTNFQTKSMSSMVSDTSCTFPSGDGIFWKHWIQTKDGQCGSPLVSTRDGFIVGIHSASNFTNTNNYFTSVPKNFMELLTNQEAQQWVSGWRLNADSVLWGGHKVFMVKPEEPFQPVKEATQL

Variants of: B1
Assay: raw area under fraction-flipped curve 0-4 h after induction (AUC4h, not background-subtracted), DNA-recorder readout of cleavage of the substrate (dimensionless); higher = more cleavage of the substrate by the protease variant
Details: temperature: 34 °C; time window: 0-4 h after rhamnose induction
Procedure: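 In vivo DNA recorder in E. coli TOP10(DE3) ΔrhaA at 34 °C. Each TEVp single-site mutant (parent TEVp 0) is paired with a single-site variant of the 7-mer TEVs (canonical ENLYFQ|S). The substrate sits between flexible linkers in a Bxb1-sfGFP-TEVs-SsrA fusion, so cleavage stabilises Bxb1 and speeds flipping of a recombination array, read by NGS. The value is the raw area under the fraction-flipped curve over 0-4 h after rhamnose induction (AUC4h), with ≥20 reads per time point. It is not background-subtracted; inactive controls average about 0.047.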
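Note: Bxb1 expression induced with 0.2% (w/v) L-rhamnose at OD600 near 0.5, cultures sampled hourly, flipped fraction per protease–substrate barcode pair counted by paired-end Illumina sequencing.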

Row | Variant | area with substrate ENLAFQS | area with substrate ENLCFQS | area with substrate ENLDFQS | area with substrate ENLEFQS | area with substrate ENLFFQS | area with substrate ENLGFQS | area with substrate ENLHFQS | area with substrate ENLIFQS | area with substrate ENLKFQS | area with substrate ENLNFQS | area with substrate ENLPFQS | area with substrate ENLQFQS | area with substrate ENLRFQS | area with substrate ENLSFQS | area with substrate ENLVFQS | area with substrate ENLMFQS | area with substrate ENLWFQS | area with substrate ENLLFQS | area with substrate ENLTFQS
1 | V220D | 0.0541 | 0.0785 | 0.056 | 0.0641 | 0.127 | 0.0747 | 0.0507 | 0.0742 | 0.0771 | 0.0562 | 0.0582 | 0.0695 | 0.0684 | 0.0837 | 0.0698 |  |  |  | 
2 | V220N | 0.0658 | 0.0776 | 0.0469 | 0.0611 | 0.083 |  | 0.0634 |  | 0.102 | 0.0706 | 0.0405 |  |  | 0.065 |  | 0.0659 | 0.0772 |  | 
3 | F38N |  | 0.0548 | 0.0611 | 0.0713 | 0.0647 | 0.0561 | 0.0535 | 0.0785 | 0.0561 | 0.0548 | 0.0654 | 0.0509 | 0.0657 |  | 0.0667 |  |  | 0.0489 | 
4 | F38T |  | 0.0887 | 0.0656 | 0.0669 | 0.0752 |  | 0.0607 | 0.064 | 0.0664 | 0.0605 | 0.0507 | 0.0796 | 0.0641 |  | 0.0793 |  | 0.0587 | 0.0775 | 
5 | P222E | 0.0571 |  | 0.0645 | 0.068 | 0.0707 |  | 0.068 | 0.0715 | 0.0808 | 0.062 | 0.0589 |  | 0.0605 | 0.0551 | 0.0688 | 0.07 |  |  | 
6 | Q234L | 0.0631 | 0.0912 |  | 0.0662 | 0.0844 | 0.0833 | 0.0896 | 0.0748 | 0.0724 | 0.064 | 0.0586 | 0.0706 | 0.0589 | 0.0515 |  | 0.0775 | 0.0647 |  | 
7 | Q234F | 0.0581 |  | 0.0653 |  | 0.0834 |  |  | 0.0792 | 0.069 | 0.0682 |  |  | 0.0861 |  | 0.0843 | 0.0581 |  | 0.0647 | 0.0748
8 | G37V |  | 0.0594 | 0.0684 | 0.0559 | 0.0821 | 0.0602 | 0.0619 | 0.0726 | 0.0564 | 0.0455 | 0.0563 |  | 0.0671 | 0.0551 | 0.0586 | 0.0596 | 0.0567 | 0.0578 | 
9 | D11H |  | 0.057 | 0.0712 | 0.0481 | 0.0871 |  | 0.0678 | 0.0748 | 0.0649 | 0.0624 | 0.0557 | 0.059 | 0.0618 | 0.0684 | 0.0865 | 0.0618 |  |  | 0.0687
10 | V229G | 0.0687 | 0.0693 | 0.0608 | 0.0715 | 0.0834 | 0.072 | 0.0668 | 0.0836 | 0.0997 | 0.0621 | 0.0682 | 0.0726 | 0.0684 | 0.0552 |  |  | 0.0624 | 0.0882 | 
11 | V229M | 0.0684 | 0.068 | 0.0697 |  | 0.0682 |  | 0.0752 |  | 0.0779 | 0.0703 | 0.0472 |  | 0.0939 | 0.0578 |  |  | 0.073 |  | 
12 | P9K |  | 0.0702 | 0.0737 | 0.0586 | 0.0763 |  | 0.0604 | 0.0961 | 0.0597 | 0.0499 | 0.0525 |  | 0.0786 | 0.0312 |  |  | 0.0651 | 0.0199 | 
13 | N13Y |  | 0.0973 | 0.0702 | 0.0559 | 0.0591 |  |  | 0.0962 | 0.0888 | 0.0527 |  |  | 0.0809 | 0.0713 |  |  | 0.0894 | 0.0733 | 
14 | V210S | 0.0506 | 0.0664 | 0.0595 | 0.0562 | 0.0642 |  | 0.0584 | 0.0599 | 0.0629 | 0.0524 | 0.0793 | 0.0688 | 0.0648 | 0.0138 |  |  |  | 0.0568 | 
15 | V210C | 0.0638 | 0.0455 |  | 0.0561 | 0.0728 | 0.0689 | 0.0651 | 0.0743 | 0.0722 | 0.0605 | 0.0551 | 0.0653 | 0.0715 | 0.0477 | 0.064 |  | 0.0653 | 0.0576 | 
16 | V210Q | 0.0605 |  | 0.0573 | 0.069 | 0.0642 | 0.0664 | 0.06 | 0.0764 | 0.0707 | 0.0682 | 0.0662 | 0.0707 | 0.0598 |  | 0.0656 | 0.0776 | 0.06 | 0.0524 | 
17 | V210L | 0.061 | 0.0717 | 0.0687 | 0.0525 | 0.0707 |  | 0.0571 |  | 0.0714 | 0.0603 |  | 0.0627 | 0.0619 | 0.0186 | 0.073 | 0.0677 | 0.0703 | 0.0609 | 
18 | P225A | 0.0345 | 0.0824 | 0.0617 |  | 0.0837 |  | 0.064 | 0.0728 | 0.0645 | 0.0644 | 0.0725 | 0.0667 | 0.0875 | 0.0654 |  | 0.0683 |  | 0.0631 | 
19 | P225L | 0.0666 | 0.0725 | 0.0572 |  |  |  |  | 0.0679 | 0.078 |  |  | 0.0848 | 0.0635 | 0.0748 |  | 0.0668 |  |  | 
20 | P225D | 0.0765 |  |  |  | 0.0925 |  | 0.0671 | 0.0889 | 0.0866 | 0.0332 | 0.0644 | 0.0646 | 0.0563 | 0.0605 |  |  |  | 0.092 | 
21 | R204C | 0.043 | 0.0772 | 0.0674 |  | 0.0819 | 0.069 | 0.0572 | 0.0862 | 0.0998 | 0.0687 | 0.054 | 0.0967 | 0.0608 | 0.0567 | 0.102 | 0.101 | 0.0678 | 0.0889 | 
22 | T233R | 0.0948 | 0.0686 | 0.0576 | 0.0689 | 0.0868 |  | 0.0874 | 0.0861 | 0.0729 | 0.068 | 0.0698 |  |  | 0.0661 | 0.0845 |  |  | 0.0548 | 0.0742
23 | I43W |  | 0.0526 | 0.0564 |  | 0.0422 | 0.0442 | 0.0362 | 0.0544 |  | 0.053 | 0.0558 | 0.0586 |  |  |  | 0.0426 |  | 0.0377 | 
24 | N206S | 0.0705 |  |  | 0.0403 | 0.0889 | 0.0702 | 0.0699 |  | 0.0786 | 0.0619 | 0.0367 | 0.0735 | 0.0716 | 0.0649 |  |  |  |  | 
25 | P228H | 0.0595 |  | 0.0529 | 0.052 | 0.0847 |  | 0.082 | 0.0674 | 0.0721 | 0.077 | 0.061 | 0.057 | 0.06 | 0.0661 | 0.0672 |  |  | 0.0812 | 
26 | P228V | 0.055 |  | 0.0388 | 0.0733 | 0.129 |  | 0.081 |  |  | 0.0679 | 0.0632 | 0.0887 |  | 0.0443 | 0.0859 | 0.0865 | 0.0665 |  | 
